PubChem BioAssay AID488969 (Vanderbilt High Throughput Screening Facility, 2010)
Whole data set: some 110,000 compounds, median “z-score” near -0.1, cut for the highest 2% near 2. This is one part of the list.

Target: Metabotropic glutamate receptor 8 (Rattus norvegicus) (UniProt P70579)
Assay: mGluR8 Gi/Go-coupled signaling modulation – cell-based, rat, thallium flux, HTS, primary screen (AID 488969)
Settings: HEK293 rat mGluR8, GIRK (G protein-gated inwardly rectifying potassium channel) thallium flux, FluoZin2; at 10 µM; stronger effect = higher value; submaximal glutamate (EC20) added with thallium

Chain of UniProt P70579 (P70579 whole entry, looked up): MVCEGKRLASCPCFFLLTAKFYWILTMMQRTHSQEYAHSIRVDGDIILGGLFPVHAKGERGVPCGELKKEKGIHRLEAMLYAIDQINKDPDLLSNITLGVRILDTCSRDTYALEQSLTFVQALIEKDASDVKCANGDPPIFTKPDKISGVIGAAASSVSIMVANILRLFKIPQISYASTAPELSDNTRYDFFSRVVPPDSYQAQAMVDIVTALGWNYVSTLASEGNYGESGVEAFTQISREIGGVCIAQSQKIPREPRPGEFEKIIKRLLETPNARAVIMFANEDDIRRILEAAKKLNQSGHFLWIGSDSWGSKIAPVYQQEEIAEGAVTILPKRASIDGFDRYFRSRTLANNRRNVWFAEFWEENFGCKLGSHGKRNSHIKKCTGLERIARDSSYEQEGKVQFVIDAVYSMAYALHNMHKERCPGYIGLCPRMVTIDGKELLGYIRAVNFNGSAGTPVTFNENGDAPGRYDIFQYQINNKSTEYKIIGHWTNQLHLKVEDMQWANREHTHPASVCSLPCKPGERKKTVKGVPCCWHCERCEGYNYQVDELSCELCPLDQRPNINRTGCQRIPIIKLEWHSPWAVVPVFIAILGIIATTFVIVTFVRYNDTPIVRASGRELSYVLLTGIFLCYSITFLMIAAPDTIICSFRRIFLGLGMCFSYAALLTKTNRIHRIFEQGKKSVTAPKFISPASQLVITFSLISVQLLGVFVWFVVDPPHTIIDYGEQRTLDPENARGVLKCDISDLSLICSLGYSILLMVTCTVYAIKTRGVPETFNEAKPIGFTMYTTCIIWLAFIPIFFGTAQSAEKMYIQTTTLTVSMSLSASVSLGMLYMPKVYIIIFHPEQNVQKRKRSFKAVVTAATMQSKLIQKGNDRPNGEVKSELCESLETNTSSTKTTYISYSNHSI

| SMILES | z-score |
| --- | --- |
| CCn1c(SCc2ccc([N+](=O)[O-])cc2)nnc1C(C)NC(=O)c1ccccc1Br (stereo not given) | -0.0635 |
| COc1ccc2[nH]c(=O)c(CN(CCO)S(=O)(=O)c3c(C)ccc4nsnc34)cc2c1 | -0.318 |
| CC(C)(C)c1ccc(OCC(=O)NC2CCS(=O)(=O)C2)cc1 (stereo not given) | 0.0553 |
| CN(C)c1ccc(C(CC(=O)c2ccccc2)C2CCCCC2=O)cc1 (stereo not given) | -0.0876 |
| CC(NC(=O)CSc1nnc(CC(=O)Nc2ccc(Cl)c(Cl)c2)n1C)c1ccccc1 (stereo not given) | -0.212 |
| O=C(O)C1CCCN1C(=O)Nc1ccccc1 (stereo not given) | 0.0553 |
| CCOC(=O)N1CCN(c2cc(N)c([N+](=O)[O-])cc2F)CC1 | -0.104 |
| Cc1ccc(-c2ccc(/C=N/NC(=O)CN3CCCC3)o2)cc1Cl | 0.409 |
| Cc1ccc(C(=O)/C=C/c2ccc3c(c2)OCO3)o1 | -0.964 |
| Cc1ccc2[nH]c(=O)c(CN(CCc3ccccc3)Cc3nnnn3CC3CCCO3)cc2c1 (stereo not given) | -0.197 |
| Cc1ccc(CNCc2ccccc2Cl)cc1 | 0.258 |
| Cc1ccc(CCN2CC(C(=O)NCCCN(C)Cc3ccccc3)CC2=O)cc1 (stereo not given) | 0.0485 |
| Cc1cnc(NC(=O)CSc2ccccc2)s1 | -0.175 |
| CSc1nc(N)nc(SCC(=O)Nc2ccc(Cl)cc2)c1C#N | -0.243 |
| O=C(O)c1cccc(COCC(F)(F)C(F)F)c1 | -0.099 |
| CC(=O)/C=N/Nc1ccccc1 | -0.139 |
| O=C(CN1CCC(n2nnc3cc(F)ccc32)CC1)NCCc1ccccc1 | -0.181 |
| COC(=O)C1=C(CSc2nnnn2C)NC(=O)NC1c1cc(C)ccc1C (stereo not given) | -0.3 |
| Cc1ccc(-n2[nH]c(C)c(/C=N/Nc3ccc([N+](=O)[O-])cc3[N+](=O)[O-])c2=O)cc1 | -0.814 |
| N#CC1=C2SCN(Cc3ccccc3)CN2C(=O)CC1c1ccccc1F (stereo not given) | 0.115 |
| Cc1cccc(NC(=O)c2ccccc2NC(=O)C2CCCCC2)c1C | -0.131 |
| COc1ccc(C(=O)N(Cc2ccc(N(C)C)cc2)C2CCS(=O)(=O)C2)cc1 (stereo not given) | 0.338 |
| COc1ccc(-c2nnc(SCC(=O)N3CCC(Cc4ccccc4)CC3)o2)cc1OC | -0.465 |
| CCOc1cc(C(=O)NC(C)COC)cc(OCC)c1OCC (stereo not given) | -1.51 |
| CC(CN1CCOCC1)OC(=O)C(c1ccccc1)c1ccccc1 (stereo not given) | 0.0321 |
| CC(C)(C)OC(=O)NCCc1nnc(SCc2c(Cl)cccc2Cl)o1 | -0.686 |
| CC1(C)Cc2c(c(N3CCOCC3)nc3snc(NC(=O)c4ccccc4)c23)CO1 | 0.0329 |
| Cc1ccc(Cl)cc1NC(=O)CSc1nnc(C)n1-c1ccccc1 | 0.427 |
| O=C(N/N=C/c1ccc(OC(=O)c2ccccc2)cc1)c1ccc(CN2CCOCC2)cc1 | 0.54 |
| Cc1nc2ccc(NC(=O)c3ccc(Cl)s3)cc2s1 | -0.159 |
